Sequences with one replicate were seen in a single cluster, so their values are uncertain.
Tested on: ATP
Test: switch fluorescence ratio, 500 uM ATP over buffer (Cy3 cluster intensity, sum of 5 cycles each) (fold (ratio)); higher = stronger signal-on switching upon ATP binding; sequences stand for … in TCGTCGGCAGCGTCAGATGTGTATAAGAGACAGTTTTTTTTTTTTTTTTTTTTTTTTT…TC
Settings: aptamer strand: ATP DNA aptamer (quencher-CACCTGGGGGAGTATTGCGGAGGAAGG + anchor), 100 nM annealed; ATP concentration: 500 uM; one replicate
Outline: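 Cy3-labelled switching-strand clusters on a modified Illumina MiSeq flow-cell were annealed to 100 nM quencher-labelled ATP aptamer and imaged first in selection buffer, then after 15 min with 500 uM ATP at 22 °C. NaOH stripping and re-annealing separated each of five buffer/ATP cycles, and clusters outside 100-1000 RFU were excluded. The fluorescence ratio sums target-cycle Cy3 intensity over buffer-cycle Cy3 intensity per cluster and averages it per switch-domain sequence.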
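Further: ATP exposure 15 min at 22 °C before imaging.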

Sequence	switch fluorescence ratio
ACAGGAGTGA	0.964
GGACTATACG	1.06
GTACCCCCGG	1.09
ACAGCCACTC	1.19
GCTATTTTGG	0.969
TCCAGTGAGT	1.04
ATCATAACCC	1.01
GGGGTCAATC	0.977
ATAGCAAA	1.69
CCGATCCGCT	3.61
TGTGTTGTGT	0.984
ATCAGGAA	0.978
AGCGGCCAGT	1.01
GCAGCAGTTT	1.04
AATCTCCCAC	1.14
GTTCAAGGTT	1.01
TGCTCCGGGC	1.3
AGCAAACGCG	1.04
TCCTCAGGGT	1.26
TTCTTAGGGT	0.963
CAGTGATCGT	0.969
TATGTATTGG	1.01
CGCAATCACC	4.16
TGGCCTGATA	1.07
GGTAATGT	0.989
TGTGTTGGGC	0.977

Sequence	switch fluorescence ratio
CCTGCCGCCG	2.07
CGAGCTAGAT	1.16
CGTTTCCGAT	0.978
GCTTATAATC	0.979
AGTAAGCAAG	1
ATAGGCAGAC	1.13
ACCAGCCCCT	1.02
AAGCGGCTTT	0.907
TTGACTGACG	1.07
CTAACGTTGA	1.04
TTTAGCTATT	0.988
CTCCAACTGT	0.924
GGTAATACAT	1.01
GCTGCCCTTC	0.993
TTACCGTAGT	1.11
CATACGCCAA	7.48
CATCACCTGC	1.07
TTCGTTGTA	1.03
TTATAAGTA	0.988
TCAGACCCTG	0.95
TAGAACGTA	1.07
GGCCGGAGTA	1.04
AAAGACTCA	0.982
AGCTTGACGT	1.03
CAGGTTCGCC	1.03
AATGCGGCCT	1

Sequence	switch fluorescence ratio
TTACTTGGG	0.956
GAGAGGTGCA	0.973
AATGCCAGTC	0.988
TTTGGCCGCC	0.994
GTCAGTTGGT	0.954
GCGCTGGAAT	0.991
AGTAGGGTA	0.973
TTATCGATTA	0.99
CTCATGTTCG	0.953
GTCTCTGCCG	0.995
GCAGGAAGAT	1
TGCAAGGATG	0.962
ATCTGGTAT	0.972
ATTCACCCCC	1.3
ACTCGATGTC	0.984
CGCCCTTTTG	0.992
CGGTAGCGCG	1.01
TCGCGTAGAT	1.05
CCGTCTTATA	1.06
TTCCATACTT	1.02
GGACTCATGC	1.09
TAAGCGACTC	1.21
CTCAGTGGGT	0.993
TTTGCATACG	2.57
GGCTCGTCGG	0.974
CTCATAGGCG	0.947

Sequence	switch fluorescence ratio
TTCCGCTTTG	1.2
GCCTAAATTT	1
GCCTGTAGGC	1
GCTATTTCCG	1.01
AGCAATAGTA	2.25
TTTTGGCGAG	0.98
TCGGTACACG	0.999
TAATTTATAG	0.969
ATCGCTGGCA	0.958
ATACGGCAGG	1.05
ACTTACTATT	1.15
GAGGAGAAGG	1.03
ATTGGCGGCA	1.01
CTTTTAGGCC	0.956
TTGCATAGG	1.1
AGCACCTGAT	1.09
TTTGGTGTAA	1.04
TATTACGGG	1.01
AAGAGGGTA	1.01
TTAACCTTCC	1.7
AGTGGAGGGT	0.999
ATAGGATGGG	0.919
CTCTACACCA	1.09
TTAAGCGGAT	0.993
TTGCAAGATG	1.01
TGAGAGGACA	1.01

Sequence	switch fluorescence ratio
AGATATTC	1.04
GGACTCATCA	1.04
GATAGTGGAG	1.01
TCGTAAAACC	1.27
TGAGAATCTT	0.983
AGAAAAGATT	1.02
AAAGACCCGG	1.02
TCCATATCTT	1
CTGCCCCGGG	1.73
TATCTGTTAC	1.09
ACCTCGCCTT	1.1
GAGTGTGAG	0.937
AGTGTTTGAC	1
TAGGCCCTGC	1.01
TATGACTGGT	1
GGGGCCCCT	1.04
ATTCATAGAT	0.948
CGAGCGGTTA	1.02
ATTTTACTAG	1.02
TCGTGTGTT	0.964
TCGTAAGGC	1.93
TGACATAAAG	1
AAACGTGGGT	0.937
GCCGTAATGT	1.12
ATACCCGTTA	0.992
TCCTTGGACG	1.04

Sequence	switch fluorescence ratio
GATCCGACTG	1.02
GTGTGCTGGT	0.963
CTTAATAAG	1.03
CAAAAAAGCC	1.06
ATACGGTACG	1.03
CTATCTAGGC	1.07
GCAGTCCAGC	1.01
ACTTGAGA	0.991
GAGGACACAT	1.04
TGCTGGAGGT	1.01
TTATGTCCAG	1.02
ATGGCGTATA	1.04
ATAGGTATAC	1.06
ATAAGTGAGA	1.02
GCGGGGCACG	0.971
CGTTGGGATT	1.01
GGCCAGTAAG	1.04
GCGAGTTGTC	0.949
TCGGGCTTGA	0.961
TAACAGACAA	1.08
TTAGACAGGC	0.975
CGTCTCGCTC	1.47
TCTAGGGGGA	1.05
TGGCATTAAC	1.2

From the supplement of paper PMC10126150
